“And” between values parts separate entries of the source, which are not always exact repeats. Equal values may be shown once. Among all 420,000 compounds or so, about 64,000 (15%) were called active. The shares of active, inactive and inconclusive entries below differ from those in the screen. Calls come from the whole dose curve; as a rule, active = well fitted inhibition curve with a large enough effect; inconclusive = small, poorly fitted or top-dose-only effect; inactive = flat fitted curve, though single readings scatter. Potencies beside an inconclusive call are fits to weak or partial responses and may not hold up.
assay: qHTS for Inhibitors of human tyrosyl-DNA phosphodiesterase 1 (TDP1): qHTS in cells in absence of CPT; settings: DT40 Tdp1-/- hTDP1 cells, no CPT, ATP luminescence, 48 h; activity change, negative = growth inhibition: at 46.2 µM (top of the series) unless noted; note: nearly all actives have a fitted effect of over 55% in size
Summary of the method: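 Luminescent ATP content (CellTiter-Glo) served as the growth readout. Knockout chicken DT40 cells expressing human TDP1 were exposed to compounds without camptothecin for a minimum 48 hr at 37 °C.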
% is set by controls: 0 for no effect and ±100 for the full control effect; potency is the fitted concentration of half-maximal effect; tags give direction and shape of the fitted curve.

Row | SMILES | Potency | activity change, negative = growth inhibition
1 | O=C(CN1CCN(C(=O)c2ccc(-c3nc4ccccc4s3)o2)CC1)Nc1cccc(F)c1 | inactive | –
2 | CCn1c(SCC(=O)N2CCCCCC2)nc2c(c1=O)SCC2 | inconclusive: 25.9 µM [inhibitor, single point] | –
3 | CC(NC(=O)COC(=O)c1ccc2c(=O)n3c(nc2c1)CCCCC3)c1ccc(F)cc1 (configuration not stated) | inactive | –
4 | Cc1ccc(C)c(Oc2cc(NC(=O)CCCn3nc(C)c([N+](=O)[O-])c3C)cc([N+](=O)[O-])c2)c1 | inconclusive: 23.1 µM [inhibitor, single point] | –
5 | CCN(CC)S(=O)(=O)c1cc(NC(=O)COc2ccc(C#N)cc2OC)ccc1C | active: 23.1 µM | –
6 | O=C(NC1CCCCC1)N1CCSC1=Nc1ccccc1 | – | inconclusive: -32.6% [inhibitor]
7 | COc1cccc(C(=O)N/N=C/c2ccc(OC)c(COc3ccccc3C(N)=O)c2)c1 | inactive | –
8 | O=C(COc1ccccc1)NCc1ccc2c(c1)CCN2C(=O)c1ccccc1 | active: 6.51 µM | –
9 | O=C(CCN1C(=O)/C(=C/c2ccccc2Cl)SC1=S)N1CCOCC1 | active: 3.66 µM | –
10 | Cc1ccc(CN/C=C/C(=O)c2ccc(Br)cc2)cc1 | – | inconclusive: -32.6% [inhibitor]
11 | CN1CCN(CC(=O)c2ccccc2F)CC1 | inactive | –
12 | CCc1ccc(N/C(N)=N/c2nc(CSc3ccccn3)cc(=O)[nH]2)cc1 | active: 16.4 µM | –
13 | CC(C(=O)Nc1ccccc1Cl)c1ccc([N+](=O)[O-])cc1 (configuration not stated) | inconclusive: 18.4 µM [inhibitor, single point] | –
14 | COc1ccc(OC)c(S(=O)(=O)N2Cc3ccccc3CC2C(=O)Nc2nccs2)c1 (configuration not stated) | inconclusive: 29.1 µM [inhibitor, single point] | –
15 | Cc1ccc(N(C)S(=O)(=O)c2ccc3[nH]c4c(c3c2)CCCC4)cc1 | inconclusive: 29.1 µM [inhibitor, single point] | –
16 | O=C(COc1ccccc1)Nc1ccc2[nH]ncc2c1 | inconclusive: 20.6 µM [inhibitor, single point] | –
17 | O=C1C=C(c2ccc3ncccc3c2)C[C@@H](c2ccc(Cl)cc2)C1 | inconclusive: 18.4 µM [inhibitor, single point] | –
18 | O=C(c1cc(Sc2ccc(Cl)cc2)nc2ccccc12)N1CCN(c2ccccn2)CC1 | inconclusive: 23.1 µM [inhibitor, single point] | –
19 | OC(COC(c1ccccc1)c1ccccc1)CN1CCN(c2ccccn2)CC1 (configuration not stated) | inconclusive: 23.1 µM [inhibitor, single point] | –
20 | O=C(Nc1nc2ccccc2n1CCN1CCOCC1)c1ccc(Cn2cc([N+](=O)[O-])cn2)o1 | inactive | –
21 | NC(=O)C1CCCN(C(=O)CCCNC(=O)c2ccc(Cl)cc2)C1 (configuration not stated) | inactive | –
22 | COc1ccc2c(C(=O)c3ccc(C)cc3)n(Cc3ccc(C(N)=O)cc3)[n+]([O-])c2c1 | inactive | –
23 | CCOc1ccccc1N1CCN(C(=O)c2cc(S(=O)(=O)N(C)C)ccc2N2CCCC2)CC1 | inconclusive: 29.1 µM [inhibitor, single point] | –

Row | SMILES | Potency | activity change, negative = growth inhibition
24 | CC(NC(=O)c1ccc(NC(=O)c2nsc3ccccc23)cc1)c1ccccc1 (configuration not stated) | inconclusive: 7.31 µM [inhibitor, partial curve] | –
25 | O=C(Nc1ccccc1)N(Cc1ccc2c(c1)OCO2)Cc1nc2ccccc2c(=O)[nH]1 | inconclusive: 16.4 µM [inhibitor, partial curve, poor fit] | –
26 | Cn1ccnc1Sc1cc(NCCCO)c([N+](=O)[O-])c2nonc12 | active: 5.17 µM | –
27 | Cn1nnnc1SCCNCc1ccc(OCc2ccccc2Cl)cc1 | inconclusive: 23.1 µM [inhibitor, single point] | –
28 | CN(C(=O)CC1C(=O)NCCN1Cc1ccc(F)cc1Cl)C1CCCCC1 (configuration not stated) | inactive | –
29 | CC(C)Cn1c2c(c(O)c(C(=O)Nc3nccs3)c1=O)CCCC2 | inconclusive: 29.1 µM [inhibitor, single point] | –
30 | CC(=O)c1ccc(S(=O)(=O)N(CCCO)Cc2cc3cc4c(cc3[nH]c2=O)OCCO4)cc1 | inactive | –
31 | C[C@]12CCC(=O)C=C1CCC1C2CC[C@@]2(C)C1CCC21OCCO1 (some centres not stated) | inconclusive: 18.4 µM [inhibitor, single point] | –
32 | COc1ccc(NC(=O)c2cc3ccccc3o2)cn1 | inactive | –
33 | COc1ccc(-n2nc(C(=O)Nc3ccc(Cl)cn3)c3c4ccccc4n(C)c3c2=O)cc1Cl | inactive | –
34 | CCOC(=O)c1ccc(NC(=O)c2cccc3c2C(=O)N(CC2CCCO2)C3)cc1 (configuration not stated) | inconclusive: 29.1 µM [inhibitor, single point] | –
35 | CCC(=O)c1cn([C@H](CCC(OC)OC)CC(=O)OC(C)(C)C)cc1CC | inconclusive: 23.1 µM [inhibitor, single point] | –
36 | COC(=O)c1c(NC(=O)Cc2coc3ccc(C)cc23)sc2c1CCC2 | inconclusive: 9.2 µM [inhibitor, partial curve] | –
37 | Clc1ccc(OCc2nc3ccccc3[nH]2)cc1 | inconclusive: 29.1 µM [inhibitor, single point] | –
38 | O=C(Nc1cccc(C(F)(F)F)c1)OCCN1CCN(Cc2ccccc2)CCC1=O | inconclusive: 18.4 µM [inhibitor, single point] | –
39 | c1ccc(Nc2nc(-c3cccnc3)nc3ccccc23)cc1 | inconclusive: 29.1 µM [inhibitor, single point] | –
40 | CN(C(=O)c1cccc(NC(=O)Cc2ccc(NC(=O)C3CCCN(C(=O)C4CCC4)C3)cc2)c1)C1CC1 (configuration not stated) | inconclusive: 29.1 µM [inhibitor, single point] | –
41 | Cc1ccc(Nc2ccc([N+](=O)[O-])nc2[N+](=O)[O-])cc1 | inconclusive: 25.9 µM [inhibitor, single point] | –
42 | CC1(c2ccccc2)NC(=O)N(CC(=O)Nc2nc(-c3ccccn3)cs2)C1=O (configuration not stated) | active: 14.6 µM | –
43 | O=C(c1ccccc1Cl)N(Cc1ccco1)Cc1ccco1 | active: 14.6 µM | –
44 | OCCC1CN(Cc2nc(-c3ccccc3)cs2)CCN1CCc1ccccc1 (configuration not stated) | active: 20.6 µM | –
45 | Cc1nc(N2CCN(Cc3ccc4c(c3)OCO4)CC2)nc2c1C(=O)CC(c1ccco1)C2 (configuration not stated) | inconclusive: 20.6 µM [inhibitor, partial curve, poor fit] | –
46 | CN(Cc1ccccc1)c1ccc(-c2nc(-c3ccco3)no2)cc1[N+](=O)[O-] | inconclusive: 18.4 µM [inhibitor, partial curve, poor fit] | –

Row | SMILES | Potency | activity change, negative = growth inhibition
47 | Cc1ccccc1-c1nc2cc(NC(=O)C3CC3)ccc2o1 | inconclusive: 5.17 µM [inhibitor, single point] | –
48 | Cc1ccc(-c2csc(NC(=O)c3ccc(Br)cc3)c2C(=O)O)cc1 | inconclusive: 18.4 µM [inhibitor, partial curve] | –
49 | COc1ccc(S(=O)(=O)N2CCN(C)CC2)c(C)c1 | inactive | –
50 | CC(C)C1C(=O)Nc2ccc(S(=O)(=O)NCc3ccc(Cl)cc3)cc21 (configuration not stated) | active: 16.4 µM | –
51 | COc1cccc(NC(=O)c2cnc(NS(=O)(=O)c3ccccc3)nc2)c1 | inconclusive: 8.2 µM [inhibitor, partial curve] | –
52 | Cc1ccc(CCNC(=O)c2cc(Nc3ccc(C)c(C)c3)nc3ccccc23)cc1 | inconclusive: 3.66 µM [inhibitor, full curve, poor fit] | –
53 | CC(Sc1nnc(C2CC2)n1C1CC1)C(=O)c1ccc(Br)cc1 (configuration not stated) | inconclusive: 20.6 µM [inhibitor, single point] | –
54 | COc1ccc(Br)cc1CN(C)C(=O)CNC(=O)c1ccc2ccccc2c1 | inconclusive: 25.9 µM [inhibitor, single point] | –
55 | Cc1cc(=O)n(CC(=O)Nc2ccc([N+](=O)[O-])cc2)c(-n2nc(C)cc2C)n1 | active: 20.6 µM | –
56 | CCN(CC)c1ccc(N2C(=O)/C(=C\c3cccs3)SC2=S)cc1 | inconclusive: 23.1 µM [inhibitor, partial curve, poor fit] | –
57 | CCCCN(CCCC)CCCOC(=O)c1ccc(N)cc1 | inactive and inconclusive: 20.6 µM [inhibitor, single point] | –
58 | O=C(Cc1cccc(NC(=O)C2CCN(C(=O)C3CCCCC3)CC2)c1)Nc1cccc(C(=O)N2CCCCC2)c1 | inactive | –
59 | O=C(O)CNc1nc(NCc2ccc(Cl)cc2)ccc1[N+](=O)[O-] | inactive | –
60 | Cc1cc(C)c(S(=O)(=O)N2CCCCC2)c(C)c1N(C)S(=O)(=O)c1ccc(Cl)cc1 | inconclusive: 18.4 µM [inhibitor, single point] | –
61 | Cc1cc(C(F)(F)F)nn1-c1nc(-c2ccccc2)cc(C(F)(F)F)n1 | inconclusive: 18.4 µM [inhibitor, single point] | –
62 | CCOC(=O)c1ccc(NC(=O)CC2C(=O)N(c3ccc(C)cc3)C(=O)N2C2CCCCC2)cc1 (configuration not stated) | inactive | –
63 | CCN1CCN(CCCNC(=O)c2ccc3c(c2)N(Cc2ccccc2)CCS3)CC1 | inconclusive: 29.1 µM [inhibitor, single point] | –
64 | CCc1cc(C(=O)NNC(=S)Nc2ccccc2C)cs1 | inconclusive: 16.4 µM [inhibitor, single point] | –
65 | CCN1C(=O)c2cccc3c(S(=O)(=O)Nc4ccccc4O)ccc1c23 | inconclusive: 25.9 µM [inhibitor, single point] | –
66 | Cc1c(-c2ccccc2)oc2c(C(=O)OCC(=O)Nc3cccc(F)c3)cccc2c1=O | inconclusive: 13 µM [inhibitor, partial curve] | –
67 | CN(C)S(=O)(=O)N1CCC(Oc2ccc(C(=O)N3C[C@@H]4CCC[C@H]3C4)cc2)CC1 | inconclusive: 29.1 µM [inhibitor, partial curve, poor fit] | –
